Measurements: PubChem BioAssay AID1362 (SRMLSC, 2008)
The other results are listed elsewhere or left out. Shown are side measurements of this screen, not its main read-out; they come without a call. Compounds called inactive in the main read-out are mostly missing here.

experiment: growth inhibition of WT strain, primary screen, mitochondrial fusion inhibitor project, WT and mutant strains, chemical genetic (AID 1362); conditions: mitochondrial fusion phenotypic screen, at 10 µM; note: tested in S. cerevisiae

Row | Compound | inhibition
1 | CC(C)CNC(=S)Nc1ccc(Oc2ccccc2)cc1 | 47.1%
2 | S=C(c1cn(CCOc2ccccc2)c2ccccc12)N1CCCC1 | 57.9%
3 | O=C(c1cccs1)N(Cc1nc2sc3c(c2c(=O)[nH]1)CCCC3)C1CCCC1 | 40.3%
4 | COC(=O)C1=C(O)C(C(=O)OC)C(c2ccc(C)cc2)C(C#N)(C#N)C1c1ccc(C)cc1 (stereo not drawn) | -5.17%
5 | S=C(Nc1ccc(Nc2ccccc2)cc1)Nc1ccccn1 | 59.2%
6 | C(=N\N1CCN(C2c3ccccc3-c3ccccc32)CC1)/c1ccncc1 | 60.9%
7 | O=C(CCc1ccccc1)NNC(=S)NC(=O)c1ccc(Cl)cc1 | 42.2%
8 | COc1cc(S(=O)(=O)N(C)C2CCCCC2)c(C)cc1C | 28.1%
9 | COc1ccccc1C(=O)NNC(=S)NC(=O)c1ccco1 | 58.8%
10 | Cc1ccccc1C(=O)NC(=S)NCCC1=CCCCC1 | 43.7%
11 | COc1ccc(NC(=S)NCCC(c2ccccc2)c2ccccc2)c(OC)c1 | 3.38%
12 | NC(=O)C1(N2CCCCC2)CCN(c2nc(-c3ccc(Br)cc3)cs2)CC1 | 55.3%
13 | Cn1c(O)c(N=NC(=S)Nc2ccccc2F)c2cc(S(=O)(=O)N3CCOCC3)ccc21 | 36%
14 | C/C(=N/Nc1nc(-c2ccccc2)cc(-c2ccc(F)cc2)n1)c1cccc(N)c1 | 25.1%
15 | O=C(Nc1ccccc1)Nc1cc(OCC(F)(F)F)cc(OCC(F)(F)F)c1 | 27.6%
16 | CC(C)NC(=S)N/N=C/c1ccc(C(C)(C)C)cc1 | 34.9%
17 | COc1cc(NC(=S)NCCC(c2ccccc2)c2ccccc2)cc(OC)c1 | 2.82%
18 | O=C(c1cccc(F)c1)N1CCN(c2cc(N3CCCCC3)c(F)cc2[N+](=O)[O-])CC1 | 50.2%
19 | O=C(COC(=O)c1ccc([N+](=O)[O-])s1)Nc1ccccc1 | 5.74%
20 | Fc1ccc(NC(=S)Nc2ccccc2OC(F)F)cc1Cl | 26.1%
21 | O=C1CC(c2cccc(Cl)c2)CC(O)=C1C=Nc1cccc(Cl)c1 (stereo not drawn) | 45.2%
22 | Cn1c(O)c(/C=N/Nc2ccccc2)c(=O)n(C)c1=O | 63.1%

Row | Compound | inhibition
23 | COCCN=c1scc(-c2ccccc2)n1/N=C/c1c[nH]c2ccccc12 | 45.1%
24 | Cc1ccccc1OCCCSc1nc2ccccc2[nH]1 | 34.3%
25 | CC(C)c1ccc(NC(=S)NCCc2c[nH]c3ccccc23)cc1 | 40.2%
26 | CCOC(=O)c1c(C)oc2c1c(C(c1ccccc1)N1CCOCC1)c(O)c1ccccc12 (stereo not drawn) | 49.6%
27 | Cc1[nH]c2ccccc2c1C(=O)COC(=O)c1ccc([N+](=O)[O-])s1 | 98%
28 | Cc1ccc(NC(=S)NCC(C)CSc2ccc(Cl)cc2)cc1 (stereo not drawn) | 50.7%
29 | Cc1ccc(C2CC(c3cccs3)=NN2C(=O)c2ccc(Br)o2)cc1 (stereo not drawn) | 61.9%
30 | Cc1ccc(NC(=O)C(Nc2cccc(C)c2)c2ccccc2)cc1 (stereo not drawn) | 29.4%
31 | COc1ccc(N2CCN(C(=O)c3ccc(Br)cc3)CC2)c([N+](=O)[O-])c1 | 68.3%
32 | CNC(=S)N/N=C(\C)c1ccc(C(C)(C)C)cc1 | 55.8%
33 | O=C(Nc1cccnc1)Nc1cc(Cl)cc(Cl)c1 | 74.6%
34 | COc1ccc(CCNC(=S)Nc2cc(C)ccc2C)cc1 | 50.1%
35 | CCC1(c2ccc(Cl)cc2)NC(=S)N(c2ccc(C)cc2)N1 (stereo not drawn) | 57.7%
36 | O=C(c1ccc(Cl)cc1)N1CCC(O)(CSc2ccc(Cl)cc2)CC1 | 54.8%
37 | O=C(COc1c(Br)cc(Br)c2cccnc12)N1CCc2ccccc2C1 | 44.4%
38 | CCn1c(NC(=O)c2ccc(F)cc2)c2ccccc2nc1=O | 10.4%
39 | Cc1cc(OCC(=O)Nc2ccncc2)cc(C)c1Br | 64.9%
40 | COC(=O)CNC(c1ccccc1)c1cc(C)ccc1NC(=O)c1cccc(Cl)c1 (stereo not drawn) | 5.3%
41 | O=S(=O)(c1ccc(Cl)c(Cl)c1)c1snnc1-c1ccccc1 | 78.3%
42 | CC(C)c1ccc(NC(=S)NCc2cccs2)cc1 | 56.1%
43 | Fc1ccc(C2c3cccn3CCN2C(=S)Nc2cccc(F)c2)cc1 (stereo not drawn) | 32.1%
44 | O=C(OCc1csc(Nc2ccccc2)n1)c1ccc(Cl)cc1 | 14%

Row | Compound | inhibition
45 | O=c1c2c3c(sc2nc(NCCO)n1CCc1ccccc1)CCCCC3 | 3.89%
46 | Cc1cccc(-n2ncc3c(N4CCCc5ccccc54)ncnc32)c1 | 58.7%
47 | COc1ccc(NCc2nc3ccccc3n2CCOc2ccc(C)cc2)cc1 | 64.1%
48 | Cc1ccc(Cl)cc1N1CCN(C(=S)NCCc2ccccc2)CC1 | 29.7%
49 | O=c1cc(N2CCCCC2)c(-c2ccccc2)nn1Cc1ccc(Cl)cc1Cl | 21.1%
50 | S=C(NCCc1ccccc1)N1CCc2ccccc2C1 | 61.3%
51 | Cc1ccc(/C=C/C(=O)N2CCC(Cc3ccccc3)CC2)cc1 | 14.1%
52 | CCn1c(=N)n(CC(=O)C23CC4CC(CC(C4)C2)C3)c2ccccc21 | 76.2%
53 | O=C(CN1CC[n+]2c(-c3cccs3)csc21)c1ccc(-c2ccccc2)cc1 | 67.9%
54 | C(=N\Nc1nc(N2CCCCC2)nc(N2CCCCC2)n1)/c1c[nH]c2ccccc12 | 32%
55 | CCOC(=O)c1c(NS(=O)(=O)c2ccc(Br)cc2)sc2c1CCC2 | -0.97%
56 | CCCCOc1ccc(CONS(=O)(=O)c2ccc(NC(C)=O)cc2)cc1Cl | 14.8%
57 | CC1CCN(C(C)C(=O)Nc2ccccc2-c2ccccc2)CC1 (stereo not drawn) | 7.86%
58 | Cc1ccc(-n2nnnc2C(Cl)c2nnnn2-c2ccc(C)cc2)cc1 | 65.5%
59 | O=C(c1sc2cc(F)ccc2c1Cl)N1CCN(c2ccccc2)CC1 | 37.5%
60 | COc1ccc(C2CC(c3ccccc3)=NN2C(=O)c2cccs2)cc1 (stereo not drawn) | 58.4%
61 | CCOc1cc(C2Nc3ccccc3C(=O)N2c2ccccc2OC)ccc1O (stereo not drawn) | -5.39%
62 | CCC(C)c1ccc(NC(=S)Nc2ccc(OC)cc2C)cc1 (stereo not drawn) | 0.44%
63 | O=C(/C=C/c1ccc2c(c1)OCCCO2)c1ccccc1O | 54.8%
64 | Cc1cc(C)c(Cc2c(C)nc3c(C(=O)NCc4ccco4)cnn3c2C)c(C)c1 | 35.5%
65 | CCc1nnc(NC(=O)Nc2ccccc2OC)s1 | -2.97%
66 | Cc1ccc(-n2[nH]c(C)c(/C=N/Nc3ccc([N+](=O)[O-])cc3[N+](=O)[O-])c2=O)cc1C | 59.4%

Row | Compound | inhibition
67 | O=C(c1ccc(Cl)cc1)c1c[nH]c(C(=O)C(Cl)(Cl)Cl)c1 | 62.7%
68 | COC(=O)c1ccc(/C=C(\C#N)c2nc3ccccc3s2)cc1 | 5.89%
69 | Cc1cc(C)c2nc(/N=C(\N)NC(=O)Nc3ccccc3)nc(C)c2c1 | 54.9%
70 | CC(C)CCNC(=S)Nc1ccc([N+](=O)[O-])cc1 | 72.8%
71 | CSc1nc(Cl)c(Cc2ccc(OC(C)C)cc2)c(N(C)C)n1 | 18.1%
72 | CCN1CCN(CCNC(=O)c2ccc(/C=C3/Sc4ccccc4N(Cc4cccc(Cl)c4)C3=O)cc2)CC1 | 71.7%
73 | CCN1C(=O)S/C(=C/c2c(OCc3ccc(C(=O)O)cc3)ccc3ccccc23)C1=O | -15.6%
74 | O=S(=O)(N1CCCCC1)N1CCN(c2cc(Cl)ccc2Cl)CC1 | 26.3%
75 | O=C(c1cnc(-c2ccc(Cl)cc2)s1)c1ccc(Cl)cc1Cl | 12.1%
76 | CN1/C(=C\C(=S)NC(=O)c2cccc(Br)c2)C(C)(C)c2ccccc21 | 19.2%
77 | N#CC1=C(N)NC(SCc2ccc(Br)cc2)=C(C#N)C12CCCCC2 | -11.5%
78 | CSc1cccc(NC(=S)N(CCCN2CCCC2)Cc2cccn2Cc2ccc(Cl)cc2)c1 | 64.7%
79 | O=C(O)Cn1c(CC(=O)N2CCCC2)nc2ccccc21 | 6.9%
80 | CCOP(=O)(OCC)c1nc(/C=C/c2ccccc2)oc1NCc1ccccc1 | 0.64%
81 | CC1=CC(C)(C)N(C(=O)c2ccc(F)cc2)c2cc3c(cc21)OCO3 | 12.1%
82 | Cc1nc(C(=O)N2CCc3c([nH]c4ccccc34)C2c2cc(F)ccc2F)cs1 (stereo not drawn) | 54.5%
83 | CCSc1ncc(/C=N/Nc2ccccc2)n1C | 60.5%
84 | CCOc1cccc(OCCCNCCCOC)c1 | -27.7%
85 | CCc1ccc(CN(C)C(=O)CCc2nc3ccccc3n(-c3ccc(OC)cc3)c2=O)cc1 | 26.1%
86 | COC(=O)c1ccc(OC(=O)CCN2c3ccccc3Sc3ccccc32)cc1 | 30.9%
87 | CCOc1ccccc1C(=O)Nc1ccccc1-c1ccccc1 | 40.5%
88 | CC(C)C(=O)N(c1cc2sc(=O)oc2c2ccccc12)S(=O)(=O)c1cccs1 | 6.98%

Row | Compound | inhibition
89 | COCCN(C(=S)Nc1cccc(C)c1)C(C)c1cccs1 (stereo not drawn) | -6.08%
90 | O=C(O)c1ccccc1C(=O)NNc1ccc(Cl)cc1 | 50.3%
91 | O/N=C/c1cc(Cl)ccc1OCc1cccc2ccccc12 | 94.7%
92 | Cc1[nH][nH]c(=O)c1C(c1c(C)[nH][nH]c1=O)c1cn(Cc2ccc(Cl)c(Cl)c2)c2ccccc12 | -3.14%
93 | OC(COCC(F)(F)C(F)(F)C(F)(F)C(F)F)Cn1c2ccc(Cl)cc2c2cc(Cl)ccc21 (stereo not drawn) | 60.5%
94 | Clc1ccc2c(N/N=C/c3cccc(Br)c3)ccnc2c1 | 96.4%
95 | Cc1ccc(C2=NN(S(=O)(=O)c3ccccc3)C(c3ccccc3O)C2)cc1 (stereo not drawn) | 34.4%
96 | Cc1c(C(=O)NN2CCCCC2)nn(-c2ccc(Cl)cc2Cl)c1-c1ccc(I)cc1 | 49.7%
97 | CCCCc1c(C)nn(-c2nnc3c4ccccc4n(CC)c3n2)c1C | 41.7%
98 | O=C1c2ccccc2C2=Nc3ccccc3SC(c3cccc(F)c3)C12 (stereo not drawn) | 73.7%
99 | CC(=O)CCc1oc2c([N+](=O)[O-])cccc2c1-c1ccc(C)o1 | 42.1%
100 | CC1CCCCN1C(=O)Cn1cc(/C=C2/C(=O)Nc3ccccc32)c2ccccc21 (stereo not drawn) | 2.65%
101 | O=C(CCc1ccc(Oc2cc([N+](=O)[O-])cc([N+](=O)[O-])c2)cc1)N1CCCCCC1 | 36.8%
102 | Cc1ccc(NC(=O)c2cc(-c3ccccc3)nn2-c2ccccc2)cc1 | 26.4%
103 | Cc1c(CN2CCC(CO)(CCOc3ccccc3)CC2)[nH]c2c(Cl)cccc12 | 91.1%
104 | Cc1ccc(-n2cc(-c3ccccc3)c3c(N4CCOCC4)ncnc32)cc1 | 8.62%
105 | COc1ccc(NC(=O)c2cc(-c3cc(C)cc(C)c3O)n[nH]2)cc1Cl | 52.5%
106 | Oc1nc(Nc2cccc(Cl)c2)sc1/C=C1\C=Nc2ccccc21 | 42.3%
107 | CCCn1c(N2CCC(Cc3ccccc3)CC2)nc2c1c(=O)[nH]c(=O)n2C | -1.39%
108 | CCN(CC)c1ncnc2scc(C3COc4ccccc4O3)c12 (stereo not drawn) | 27.3%
